# Reference: ChEMBL document CHEMBL4888484, “Replenishing the malaria drug discovery pipeline: Screening and hit evaluation of the MMV Hit Generation Library 1 (HGL1) against asexual blood stage Plasmodium falciparum ,using a nano luciferase reporter read-out” (2022)
# Screen size: about 150,000 compounds; about 540 (0.36%) showed an effect of 50% or more. This is one part of the list.
# Test system: Plasmodium falciparum
# Test: Primary screen in NF54 nanoGlo assay, in single point, at 2uM, 72h; a lower Z score goes with more inhibition
# Assay type: functional, Erythrocyte
# Settings: timepoint 72 hour
SMILES,% Inhibition [%],Z score
Fc1ccccc1Nc1nc(-c2cccc(Cl)c2)c2c(n1)-c1ccccc1OC2,-7,1.33
Cc1ccc(F)c(C(=O)N2CCN(C3CCOCC3)C[C@H]2C)c1,-1,0.15
CN1N=C(C(=O)Nc2cc(-c3ccccc3)on2)CCC1=O,-11,1.53
Cc1ccc(Cl)cc1N1CCN(C(=O)NCC2CCC2)CC1,-8,1.47
Fc1cc(Cl)ccc1CN1CCC(n2cncn2)CC1,-4,0.44
CO[C@@H](C)c1noc(CN(C)c2ccnc(N(C)C)n2)n1,-1,0.1
O=C(CN1CCCCCCC1)N1CC(c2nc3ccccc3[nH]2)C1,-4,0.81
O=C(Nc1ccc2c(c1)OCO2)c1c(-c2ccc(Cl)cc2)nc2n1CCS2(=O)=O,33,-0.56
CN1C(=O)C[C@H](C(=O)NC2CC(=O)N(c3ccccc3)C2)[C@H]1c1cccnc1 (stereo partly drawn),-6,1.14
Cc1conc1COc1ccc([C@@H]2CCC(=O)N2)cc1,-8,1.03
Cc1cc(C)c(-n2cccn2)c([C@H]2CC(=O)Nc3[nH]nc(C4CC4)c32)c1,3,-0.48
CC(=O)N[C@H]1[C@H](OCc2ccccc2)O[C@@H]2COC(c3ccccc3)O[C@H]2[C@@H]1OC(C)C(=O)O (stereo partly drawn),29,-3.75
CCCCn1nccc1N[C@H]1CCCOC1,-9,1.17
CN(Cc1cccn1C)C(=O)[C@@](C)(O)CN1C(=O)NC2(CCCC2)C1=O,-3,0.4
Cc1cc(=O)c(C(=O)N2CCc3ccccc3C2)c(CCc2ccccc2)n1CCN(C)C,-4,0.51
CC(C)=CCN1CC2(CCN(C(=O)c3c(F)cccc3F)CC2)CC1=O,-6,0.66
CN1C(=O)c2ccc(S(=O)(=O)N3CCC(C(F)F)CC3)cc2C1=O,1,-0.06
COc1cc(NC(=O)c2cc3n(n2)C[C@@H](c2ccc4c(c2)OCO4)OC3)c(OC)cc1Cl,-3,0.58
CCN(C)C(=O)c1coc(CN2CCN(Cc3ccccc3)CC2)n1,0,0
O=C(c1csc(Cl)c1)N1CCCC1CC(O)c1cccs1 (stereo not drawn),2,-0.28
CN1CCN(c2nc3c(c(Oc4ccc(F)cc4)n2)CN(C(=O)Nc2cccc(Cl)c2)CC3)CC1,3,-0.37
COc1ccc(C[C@H](C)CNC(=O)c2ccon2)cc1,2,-0.23
COCC1(CNCc2n[nH]c(C)c2Cl)CCC1,-9,1.84
Cc1ncc(CN2C[C@@H]3CCC[C@H](C2)C(=O)N3)n1C,-3,0.31
CC(C)(Oc1ccc(C(F)(F)F)cc1)C(=O)N1CC(C2CS(=O)(=O)C2)C1,-11,1.77
Cc1cc(CS(=O)(=O)[C@@H](C)C(=O)NCc2ccccc2)no1,15,-2
Cc1ccc(OCCn2ccc(=O)c3cccc(OC(F)(F)F)c32)cc1,-2,0.31

SMILES,% Inhibition [%],Z score
COc1cccc(Cn2cnc(-c3ccccc3)c2-c2cccnc2)c1OC,-2,0.38
CC1CN(C(=O)C2=NN(c3ccccc3)C(=O)CN2)CC(C)O1 (stereo not drawn),-1,0.07
COc1ccc(NC(C)=O)cc1-n1ccnc1-c1ccc(Cl)s1,5,-0.66
Cc1cccc(NC(=O)Cn2nc(N3CCC(C)CC3)c3ccccc3c2=O)c1,-7,1.05
FC(F)(F)c1cnc(CCCn2ccnc2)c(Cl)c1,-9,1.19
Cc1ccc(CNC(=O)N2CCCC(O)C2C)c2ccccc12 (stereo not drawn),-5,0.88
CCCc1nnc(NC[C@H](C)n2nc(C)cc2C)o1,9,-1.02
CCCCNC(=O)c1c(O)c2cccc3c2n(c1=O)CCC3,-12,1.11
C(=C\c1ccccc1)/CNCc1ccco1,-9,1.2
Cc1nnc(-c2ccc3ccn(CC(=O)Nc4ccccn4)c3c2)o1,8,-0.91
Cc1cc(=O)[nH]c(CCNC(=O)c2c(C)cc(C)n(C)c2=O)n1,0,-0.07
CC(CC1CCCC1)C(=O)NC1CN(C(=O)OC(C)(C)C)CC1C#N (stereo not drawn),-3,0.24
CCn1cc(C(C)NC(=O)C(C)n2nc(C(F)F)c(Br)c2C)c(C)n1 (stereo not drawn),-37,4.31
Cn1c(CN2CCCC2)nnc1[C@H]1CCCN(c2cc(C#N)ccn2)C1,-10,1.86
CC(C)Cc1n[nH]c(NC(=O)COc2cccc(-n3cnnc3)c2)n1,-12,1.28
CN(C)[C@H]1CCN(c2cccc(C(F)(F)F)n2)C[C@H]1CCCO,-9,1.72
CCN(CC)C(=O)[C@@H]1CCC[C@@H](NCc2ccc(F)cc2)CN(C)C(=O)C1,17,-1.93
CC(C)(C)[C@H]1CCCN(C(=O)c2ncc[nH]2)CC1,-18,2.59
CCc1nnsc1C(=O)NCC(C)N1CCCCC1C (stereo not drawn),-17,3.15
COCCC1(CN[C@H]2CCCc3c(OC)cccc32)CCC1,3,-0.45
Cc1nc([C@@H]2CCCN2S(=O)(=O)CCN2CCCC2)no1,-12,1.7
Cc1ccc(CC(=O)Nc2cc(-c3ccccn3)no2)cc1,-12,2.13
CCc1nc2cc(N3CCC[C@H](C(=O)NCCN(C)C)C3)cnc2nc1CC,2,-0.46
CCCc1nc(C)cc(N(C)CCC2(O)CCCC2)n1,3,-0.54
O=C(Nc1ccc(S(=O)(=O)N2CCCC2)cc1)Nc1cccc(C(F)(F)F)c1,-7,0.95
COc1ccccc1-n1nc(Cc2ccccc2)n(CC(=O)NCCCO)c1=O,-7,1.27
COc1ccc(Br)cc1Cc1nnnn1CC(=O)N(C)[C@@H](C)c1ccccc1,-6,0.56
